The record followed here is the supplement of paper PMC11125491.

± gives the standard deviation of the averaged measurements. Growth of baker's yeast expressing single-residue variants of Pneumocystis jirovecii dihydrofolate reductase in 8.8 or 44 µM methotrexate (about 75% and 90% inhibition of the wild type). Selection coefficient per generation; 0 = like wild type, above 0 = less sensitive, below 0 = more sensitive or loss of function. No active / inactive call per row; the paper calls resistant above 0.220 (8.8 µM) or 0.243 (44 µM) together with a significance test. At 44 µM about 15% of codons end with one read or none, so the lowest values are floors (replicate rank correlation 0.74; 0.94 at 8.8 µM).

To fix the notation:
B1: UniProt A0EPZ9; numbered along this chain (parent)
chain: MDWQKSLTLIVALTLSRGIGLKNDLPWKLKSDMMFFSRVTSGLLVTRSTGQMNVVLMGRKTWESLPAHSRPLKNRINVVISRQEVLDLGGGAYHARSLDDALALLSQIYDSTSKIQLNRVFVIGGGELCKAAMEHSRLNRIIATVIHNEVDCDVFFPIDFRSSQSCLPWRKQDHSVLEAWVGSKVPQGKINENGFIYEFEMWIRDI

Variants of B1 are the subject of the series. The series is described as follows: selection coefficient against synonymous wild-type codons (log2 per generation); higher = faster growth than wild type. Conditions: with Saccharomyces cerevisiae carrying the variant on a plasmid. The method, then:
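Pooled growth of yeast carrying single-residue variants of P. jirovecii dihydrofolate reductase (own DFR1 gene intact), two passages at 30 °C, three cultures, sequenced before and after. Codons with under 15 starting reads are left out; codons of one change are averaged.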

For the variant MDDQKSLTLIVALTLSRGIGLKNDLPWKLKSDMMFFSRVTSGLLVTRSTGQMNVVLMGRKTWESLPAHSRPLKNRINVVISRQEVLDLGGGAYHARSLDDALALLSQIYDSTSKIQLNRVFVIGGGELCKAAMEHSRLNRIIATVIHNEVDCDVFFPIDFRSSQSCLPWRKQDHSVLEAWVGSKVPQGKINENGFIYEFEMWIRDI [W3D], the “selection coefficient against synonymous wild-type codons (log2)” value (shortened to “selection coefficient … (log2)”) (methotrexate 8.8 µM) was found to be 0.113 ± 0.031 and the “selection coefficient … (log2)” value (methotrexate 44 µM) is 0.159 ± 0.046.

MDWQKSLTLIVALTLSRGIGLKNDLPWKLKSDMMFFSRVTSGLLVTRSTGQMNVVLMGRKTWESLPAHSRPLKNRINVVISRQEVLDLGGGAYHARSLDDALALLSQIYDSTSKIQLNRVFVIGGGELCKAAMEHSRLNRIIATVIHNEVDCDVFFPIDFRSWQSCLPWRKQDHSVLEAWVGSKVPQGKINENGFIYEFEMWIRDI [S163W]: the “selection coefficient … (log2)” value is -0.184 ± 0.065 (methotrexate 8.8 µM) and 0.115 ± 0.2 (methotrexate 44 µM).

On to MDWQKSLTLIVALTLSRGIGLKNDLPWKLKSDMMFFSRVTSGLLVTRSTGQMNVVLMGRKTWESLPAHSRPLKNRINVVISRQEVLDLGGGAYHARSLDDALALLSQIYDSTSKIQLNRVFVIGGGELCKAAMEHSPLNRIIATVIHNEVDCDVFFPIDFRSSQSCLPWRKQDHSVLEAWVGSKVPQGKINENGFIYEFEMWIRDI [R137P], for which the “selection coefficient … (log2)” value runs as follows: (methotrexate 8.8 µM) -0.248 ± 0.075; (methotrexate 44 µM) -0.225 ± 0.047.

For the variant MDWQKSLTLIVALTLSRGIGLKNDLPWKLKSDMMFFSRVTSGLLVTRSTGQMNVVLMGRKTWESLPAHSRPLKNRINVVISRQEVLDLGGGAYHARSCDDALALLSQIYDSTSKIQLNRVFVIGGGELCKAAMEHSRLNRIIATVIHNEVDCDVFFPIDFRSSQSCLPWRKQDHSVLEAWVGSKVPQGKINENGFIYEFEMWIRDI [L98C], the “selection coefficient … (log2)” value reads like this: (methotrexate 8.8 µM) -0.77 ± 0.057; (methotrexate 44 µM) -0.266 ± 0.019.

As for MDWQKSLTLIVALTLSRGIGLKNDLPWKLKSDMMFFSRVTSGLCVTRSTGQMNVVLMGRKTWESLPAHSRPLKNRINVVISRQEVLDLGGGAYHARSLDDALALLSQIYDSTSKIQLNRVFVIGGGELCKAAMEHSRLNRIIATVIHNEVDCDVFFPIDFRSSQSCLPWRKQDHSVLEAWVGSKVPQGKINENGFIYEFEMWIRDI [L44C], the “selection coefficient … (log2)” value is -0.00854 ± 0.045 (methotrexate 8.8 µM) and 0.249 ± 0.03 (methotrexate 44 µM).

As to MDWQKSLTLIVALTLSRGIGLKNDLPWKLKSDMMFFSRVTSGLLVTRSTGQMNVVLMGRKTWESLPAHSRPLKNRINVVISRQEVLDLGGGAYHARSLDDALALLSQIYDSTSKIQWNRVFVIGGGELCKAAMEHSRLNRIIATVIHNEVDCDVFFPIDFRSSQSCLPWRKQDHSVLEAWVGSKVPQGKINENGFIYEFEMWIRDI [L117W], the “selection coefficient … (log2)” value runs as follows: (methotrexate 8.8 µM) -0.0677 ± 0.035; (methotrexate 44 µM) 0.27 ± 0.36.

Regarding MDWQKSLTLIVALTLSRGIGLKNDLPWKLKSDMMFFSRVTSGLLVTRSTGQMNVVLMGRKTWESLPAHSRPLKNRINVVISRQEVLDLGGGAYHARSLDDALALLSQIYDSTSKIQLNRVKVIGGGELCKAAMEHSRLNRIIATVIHNEVDCDVFFPIDFRSSQSCLPWRKQDHSVLEAWVGSKVPQGKINENGFIYEFEMWIRDI [F121K], the “selection coefficient … (log2)” value is -0.567 ± 0.24 (methotrexate 8.8 µM) and -0.322 ± 0.052 (methotrexate 44 µM).

Take MDWQKSLTLIVALTLSRGIGLKNDLPWKLKSDMMFFSRVTSGLLVTRSTGQMNVVLMGRKTWESLPAHSRPLKNRINVVISRQPVLDLGGGAYHARSLDDALALLSQIYDSTSKIQLNRVFVIGGGELCKAAMEHSRLNRIIATVIHNEVDCDVFFPIDFRSSQSCLPWRKQDHSVLEAWVGSKVPQGKINENGFIYEFEMWIRDI [E84P]: the “selection coefficient … (log2)” value reads like this: (methotrexate 8.8 µM) -0.0584 ± 0.065; (methotrexate 44 µM) -0.0563 ± 0.077.

Turning to MDWQKSLNLIVALTLSRGIGLKNDLPWKLKSDMMFFSRVTSGLLVTRSTGQMNVVLMGRKTWESLPAHSRPLKNRINVVISRQEVLDLGGGAYHARSLDDALALLSQIYDSTSKIQLNRVFVIGGGELCKAAMEHSRLNRIIATVIHNEVDCDVFFPIDFRSSQSCLPWRKQDHSVLEAWVGSKVPQGKINENGFIYEFEMWIRDI [T8N], the “selection coefficient … (log2)” value reads like this: (methotrexate 8.8 µM) -0.191 ± 0.027; (methotrexate 44 µM) -0.203 ± 0.16.

For MDWQKSLTLIVALTLSRGYGLKNDLPWKLKSDMMFFSRVTSGLLVTRSTGQMNVVLMGRKTWESLPAHSRPLKNRINVVISRQEVLDLGGGAYHARSLDDALALLSQIYDSTSKIQLNRVFVIGGGELCKAAMEHSRLNRIIATVIHNEVDCDVFFPIDFRSSQSCLPWRKQDHSVLEAWVGSKVPQGKINENGFIYEFEMWIRDI [I19Y], the “selection coefficient … (log2)” value by setting is: (methotrexate 8.8 µM) 0.687 ± 0.051; (methotrexate 44 µM) 0.876 ± 0.074.

MDWQKSLTLIVALTLSRGIGLKNDLPWKLKSDMMFFSRVTSGLLVTRSTGQMNVVLMGRKTWESLPAHSRPLKNRINVVISRQEVLDLGGGAYHARSLDDALALLSQIYDSTSKIQLNRVFVIGGGELCKAAMEHSRLNRIIATVIHNEVDCDVFFPIDTRSSQSCLPWRKQDHSVLEAWVGSKVPQGKINENGFIYEFEMWIRDI [F160T]: the “selection coefficient … (log2)” value reads like this: (methotrexate 8.8 µM) 0.425 ± 0.049; (methotrexate 44 µM) 0.444 ± 0.032.

As to MDWQKSLTLIVALTLSRGIGLKNDLPWKLKSDMMFFSRVTSGLLVTRSTGQMNVVLMGRKTWESLPAHSRPLKNRINVVISRQEVLDLGGGAYHARSLDDALALLSQIYDSTSKIQLNRVFVIGGGELCKAAMEHSRLNRIIATVIHNEVDCDVFFPIDFRSSQSCLPWRKQDHSVLEAWRGSKVPQGKINENGFIYEFEMWIRDI [V181R], the “selection coefficient … (log2)” value reads like this: (methotrexate 8.8 µM) -0.0101 ± 0.074; (methotrexate 44 µM) -0.0342 ± 0.081.

With MDWQKSLTLIVALTLSRGIGLKNDLPWKLKSDMMFFSRVTSGLLVTRSTGQMNVVLMGRKTWESLPAHSRPLKNRINVVISRQEVLDLGGGAYHARSLDDALALLSQIYDSTSKIQLNDVFVIGGGELCKAAMEHSRLNRIIATVIHNEVDCDVFFPIDFRSSQSCLPWRKQDHSVLEAWVGSKVPQGKINENGFIYEFEMWIRDI [R119D], the “selection coefficient … (log2)” value runs as follows: (methotrexate 8.8 µM) 0.103 ± 0.031; (methotrexate 44 µM) 0.169 ± 0.076.

For the variant MDWQKSLTLIVALTLSRGIGLKNDLPWKLKSDMMFFSRVTSGLLVTRSTGQMNVVLMGRKTWESLPAHSRPLKNRINVVISRQEVLDLGGGAYHARSLDDALALLSQIYDSTSKIQLNRVFVIGGGELCKAAMEHSRLNRIIATVIHNEVDCDVFFPIDFRSSQSCLPWRKQDHSVLEAWVGSKVPQGKINENGFRYEFEMWIRDI [I196R], the “selection coefficient … (log2)” value by setting is: (methotrexate 8.8 µM) 0.00358 ± 0.079; (methotrexate 44 µM) 0.0353 ± 0.081.

In the case of MDWQKSLTLIVALTLSRQIGLKNDLPWKLKSDMMFFSRVTSGLLVTRSTGQMNVVLMGRKTWESLPAHSRPLKNRINVVISRQEVLDLGGGAYHARSLDDALALLSQIYDSTSKIQLNRVFVIGGGELCKAAMEHSRLNRIIATVIHNEVDCDVFFPIDFRSSQSCLPWRKQDHSVLEAWVGSKVPQGKINENGFIYEFEMWIRDI [G18Q], the “selection coefficient … (log2)” value by setting is: (methotrexate 8.8 µM) 0.0814 ± 0.021; (methotrexate 44 µM) -0.0263 ± 0.17.
